Laboratory results taken from article PMC4624954, “Delineating the Tes Interaction Site in Zyxin and Studying Cellular Effects of Its Disruption” (PLoS ONE, 2015).
Numbering of substitutions follows the chain as printed. Results are given in words; binding and its absence hold for the method and conditions named. For some of these results: Binding seen in cells or lysates may run through a third protein. Some results given as binding are weak or reduced against the parent protein; the word gives no strength. Tags and fused reporters may be left off the sequences shown.

Legend:
[1] = molecular target: T1, Zyx FL WT-mito (human) (UniProt Q15942); assay: ectopic recruitment to mitochondria; Vero cells transiently co-transfected with a zyxin-mito variant (held on the surface of mitochondria by the ActA membrane anchor) and a GFP-Tes variant; fixed cells, immunofluorescence (anti-zyxin or anti-myc) and GFP signal
T1 sequence: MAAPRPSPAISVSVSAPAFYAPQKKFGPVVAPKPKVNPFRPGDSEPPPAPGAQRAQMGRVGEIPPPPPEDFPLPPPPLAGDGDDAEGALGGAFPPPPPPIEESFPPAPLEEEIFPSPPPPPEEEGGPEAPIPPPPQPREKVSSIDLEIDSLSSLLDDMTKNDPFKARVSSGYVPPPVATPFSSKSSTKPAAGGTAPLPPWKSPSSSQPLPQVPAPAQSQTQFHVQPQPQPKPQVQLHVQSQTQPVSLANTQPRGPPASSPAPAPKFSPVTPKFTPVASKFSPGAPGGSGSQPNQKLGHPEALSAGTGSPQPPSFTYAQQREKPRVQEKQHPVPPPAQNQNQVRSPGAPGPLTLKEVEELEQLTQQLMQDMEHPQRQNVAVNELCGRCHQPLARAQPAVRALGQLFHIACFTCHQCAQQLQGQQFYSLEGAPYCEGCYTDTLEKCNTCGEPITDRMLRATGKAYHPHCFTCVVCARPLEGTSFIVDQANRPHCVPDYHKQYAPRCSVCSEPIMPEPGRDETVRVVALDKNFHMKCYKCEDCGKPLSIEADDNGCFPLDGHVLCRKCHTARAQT

[2] = molecular target: T2, Zyx 140-380-myc-mito (human) (UniProt Q15942); assay: as above
T2 sequence: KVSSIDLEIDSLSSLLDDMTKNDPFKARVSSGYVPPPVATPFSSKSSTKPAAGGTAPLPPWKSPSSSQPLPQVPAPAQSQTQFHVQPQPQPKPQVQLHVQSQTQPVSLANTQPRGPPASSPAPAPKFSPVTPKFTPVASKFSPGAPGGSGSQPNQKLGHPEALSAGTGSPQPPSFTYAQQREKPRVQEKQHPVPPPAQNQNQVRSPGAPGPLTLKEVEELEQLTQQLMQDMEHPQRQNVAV

[3] = molecular target: T3, Zyx 51-140-myc-mito (human) (UniProt Q15942); assay: as above
T3 sequence: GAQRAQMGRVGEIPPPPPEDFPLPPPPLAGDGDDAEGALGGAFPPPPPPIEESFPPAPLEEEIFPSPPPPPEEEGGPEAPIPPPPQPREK

[4] = molecular target: T4, Zyx 51-63-myc-mito (human) (UniProt Q15942); assay: as above
T4 sequence: GAQRAQMGRVGEI

[5] = molecular target: T5, Zyx 51-77-myc-mito (human) (UniProt Q15942); assay: as above
T5 sequence: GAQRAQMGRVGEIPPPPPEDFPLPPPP

[6] = molecular target: T6, Zyx 51–63 MT-myc-mito (human) (UniProt Q15942); assay: as above
T6 sequence: GAQRAQMGRAAAA

[7] = molecular target: T7, Zyx 64-77-myc-mito (human) (UniProt Q15942); assay: as above
T7 sequence: PPPPPEDFPLPPPP

[8] = molecular target: T8, Zyx FL MT-mito (human) (UniProt Q15942); assay: as above
T8 sequence: T1 sequence with V60A, G61A, E62A, I63A

[9] = molecular target: T9, GST-Tes LIM1 (UniProt Q9UGI8); assay: pull-down; 16 μg purified GST-Tes LIM1 immobilised on Glutathione Sepharose 4B; 200 μg total protein of transfected HeLa extract; NP40 lysis buffer (50 mM Tris pH 7.4, 120 mM NaCl, 0.5% Nonidet P-40, 0.5 mM EDTA), 2 hours at 4°C; Western blot of bound and non-bound fractions (anti-GFP or anti-zyxin); only the target purified
T9 sequence: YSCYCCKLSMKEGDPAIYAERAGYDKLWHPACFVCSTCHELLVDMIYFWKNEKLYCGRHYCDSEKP

[10] = molecular target: T10, Zyx LIM-myc-mito (human) (UniProt Q15942); assay: ectopic recruitment to mitochondria; Vero cells transiently co-transfected with a zyxin-mito variant (held on the surface of mitochondria by the ActA membrane anchor) and a GFP-Tes variant; fixed cells, immunofluorescence (anti-zyxin or anti-myc) and GFP signal
T10 sequence: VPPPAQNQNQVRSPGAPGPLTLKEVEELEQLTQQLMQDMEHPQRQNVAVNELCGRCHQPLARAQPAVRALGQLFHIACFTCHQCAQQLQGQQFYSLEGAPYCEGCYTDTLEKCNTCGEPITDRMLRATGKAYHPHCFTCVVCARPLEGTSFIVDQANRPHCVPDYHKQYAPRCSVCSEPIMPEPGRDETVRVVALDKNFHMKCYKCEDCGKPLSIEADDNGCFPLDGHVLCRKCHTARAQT

[11] = molecular target: T11, Zyx NT-mito (human) (UniProt Q15942); assay: as above
T11 sequence: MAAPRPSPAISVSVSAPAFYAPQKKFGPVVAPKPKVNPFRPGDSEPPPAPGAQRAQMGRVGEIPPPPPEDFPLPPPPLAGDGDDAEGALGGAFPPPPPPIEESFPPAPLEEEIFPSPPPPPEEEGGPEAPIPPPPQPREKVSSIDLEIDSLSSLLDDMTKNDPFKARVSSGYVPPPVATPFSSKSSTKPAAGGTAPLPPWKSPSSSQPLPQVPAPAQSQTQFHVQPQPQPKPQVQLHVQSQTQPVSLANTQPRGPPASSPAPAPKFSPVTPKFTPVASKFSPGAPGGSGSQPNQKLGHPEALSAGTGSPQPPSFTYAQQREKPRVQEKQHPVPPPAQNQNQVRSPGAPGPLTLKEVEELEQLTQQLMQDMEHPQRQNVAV

B1: Tes FL-GFP (natural protein, UniProt Q9UGI8 1-421, looked up)
chain: MDLENKVKKMGLGHEQGFGAPCLKCKEKCEGFELHFWRKICRNCKCGQEEHDVLLSNEEDRKVGKLFEDTKYTTLIAKLKSDGIPMYKRNVMILTNPVAAKKNVSINTVTYEWAPPVQNQALARQYMQMLPKEKQPVAGSEGAQYRKKQLAKQLPAHDQDPSKCHELSPREVKEMEQFVKKYKSEALGVGDVKLPCEMDAQGPKQMNIPGGDRSTPAAVGAMEDKSAEHKRTQYSCYCCKLSMKEGDPAIYAERAGYDKLWHPACFVCSTCHELLVDMIYFWKNEKLYCGRHYCDSEKPRCAGCDELIFSNEYTQAENQNWHLKHFCCFDCDSILAGEIYVMVNDKPVCKPCYVKNHAVVCQGCHNAIDPEVQRVTYNNFSWHASTECFLCSCCSKCLIGQKFMPVEGMVFCSVECKKRMS
For B1, the binding [1] was “binds weakly”.

B2: GFP-Tes LIM1 (domain or fragment, UniProt Q9UGI8 234-299)
chain: T9 sequence
B2 was tested, and the binding [2] was “no binding”, the binding [3] was “binds” and the binding [4] was “binds”. For the same binder, the binding [5] was “binds”, the binding [6] was “no binding” and the binding [7] was “no binding”. For the same binder, the binding [8] was “no binding” and the binding [1] was “binds”.

GAQRAQMGRVGEI (domain or fragment, UniProt Q15942 51-63) [Zyx 51-63-GFP] was tested, and the binding [9] was “binds”.

B3: Zyx FL WT-GFP (protein, UniProt Q15942 1-572)
chain: T1 sequence
With B3 the binding [9] was “binds”.

B4: endogenous zyxin (protein, UniProt Q15942 1-572)
chain: T1 sequence
For B4, the binding [9] was “binds”.

B5: GFP-Tes LIM (domain or fragment, UniProt Q9UGI8 234-421)
chain: YSCYCCKLSMKEGDPAIYAERAGYDKLWHPACFVCSTCHELLVDMIYFWKNEKLYCGRHYCDSEKPRCAGCDELIFSNEYTQAENQNWHLKHFCCFDCDSILAGEIYVMVNDKPVCKPCYVKNHAVVCQGCHNAIDPEVQRVTYNNFSWHASTECFLCSCCSKCLIGQKFMPVEGMVFCSVECKKRMS
For B5, the binding [2] was “no binding”, the binding [3] was “binds” and the binding [4] was “binds”. For the same binder, the binding [5] was “binds”, the binding [7] was “no binding” and the binding [1] was “binds”. The binding [10] was “no binding” and the binding [11] was “binds”.

For GAQRAQMGRAAAA (domain or fragment, UniProt Q15942 51-63) [Zyx 51–63 MT-GFP], the binding [9] was “no binding”.

B6: Zyx FL MT-GFP (protein, UniProt Q15942 1-572)
chain: T1 sequence with V60A, G61A, E62A, I63A
B6 was tested, and the binding [9] was “no binding”.
